Laboratory results as given in the RNAGym collection of RNA variant scans (doi:10.7554/elife.90254).
The source gives no read counts; variants with many changes may rest on few reads.

B1: LINE1-mini (parent)
chain: GGCAGAGCUCAACACAGCGUGGCAAAGUGGCUGUGGCUAGACUGCC

Variants of: B1
Assay: self-cleavage, relative activity (ratio to wild type); higher = more cleavage; in vitro, sequencing; the parent is a self-cleaving ribozyme
In the case of GGCAGAGCUCGACAGAGCGUGGCAAAGUGGCUGUGGCUUGACUGCC, the self-cleavage is reported as 0.02.
In the case of GGCAGAGAUCAACACAGCGUGGCAAAGUGGCUGUGUCUGGACUGCC, the self-cleavage is reported as 0.06.
GGCAGAGCUCAAUACAGCGUAGCCAAGUGGCUGUGCCUAGACUGCC gave a self-cleavage of 0.04.
GGCAGAGCUCAACACAGCGUGGCAAAGUGGCUGUGGGUAGACUCCA showed a self-cleavage of 0.04.
With GGCAGAGCUCAACACAGCGUGGCAAAGUGGCCGUGGGUAGACUGCA the self-cleavage was 0.05.
Variant GGCGGAGCUCAACACAGCGUGGCAAAGUGGCUGUGGCGAGACUGUC has a self-cleavage of 0.01.
Variant GGCAGAGCUCAACACAGCGUGGCCUAGUGGCUAUGGCUAGACUGCC has a self-cleavage of 0.18.
Work on GGCAGAGCAGAACACAGCGUGGCAAUGGGGCUGUGGCUAGACUGCC yielded a self-cleavage of 0.01.
GGCAGAGCUCAACACAGGGUGGCAAAGAGGCUGAGGCUAGACUGCC gave a self-cleavage of 0.01.
Variant UGCAGAGCGCAAAAAUGCGCGGCAAAGUGGCUGUGGUUAGACUGCC has a self-cleavage of 0.01.
In the case of GGCAGAGCUUAACACAUCAUGGCAGAGUGGCUGUGGCUAAACUCCC, the self-cleavage is reported as 0.02.
Work on GGCAGAGUUCAACACAGCCUGGCAAAGUGGCUGUGGCUAGACUCCC yielded a self-cleavage of 0.04.
Work on GGCUGAGCUCAACACAGCGUGGCAAAGUUGCUGUGGGUAGACUGCC yielded a self-cleavage of 0.43.
GGCAGGGCUGAGCACAGCGUGGCAAAGUGGCUGUGGCUAGACUGCC showed a self-cleavage of 0.01.
For GGCAGAGCUCAAGACCUCGUGGCAAAGUGGCUGUGGCUAGACUGCC, the self-cleavage was 0.13.
GUCAGAGCUCAACACAGCCUGGCAAUGUGGCUGUGGCUAGACUGCC showed a self-cleavage of 0.17.
For GGGAGAUUUCAACACAGCGGGGCAAAGUGGCUGUGGCUAGACUGCC, the self-cleavage was 0.2.
For GGCAGAGCUCAACACAGCUUGUCAAAGUGUCUGCGGCUAGACUGCC, the self-cleavage was 0.04.
In the case of GGCAGAGCUCAUCACAGAGUGGCAUAGUGGCAGUGGCUAGACUGCC, the self-cleavage is reported as 0.03.
With UGCAGAGCUCAACACAGGGUGUCAACGUGGCUGUGGUUAGACUGCC the self-cleavage was 0.01.
Work on GACAGAGCGCAACACAGCGUGGCAGAGUAGCUGUGGCUAGACUUCC yielded a self-cleavage of 0.06.
GGCAGAGCUCAACACAUCGUGGCAAAGUGGGUGUGGCUAGACUACC gave a self-cleavage of 0.37.
For GCCAGAUCUCAACACAGAGUGGCAAAGUAGCUGUGGCUUGAAUGCC, the self-cleavage was 0.05.
GGCAGAGCUGAACACUGCGUGGCAAAGUGGCUGUAGCUAGACUGCC gave a self-cleavage of 0.01.
GGCAGAGCUCAACAUAGCGUGGUAAAGUGGCUGAGGCUAGACUCCC gave a self-cleavage of 0.02.
GCGAGAGCUGAACACAGCGUGGCAAAGUGGCUGUGGCUAGACUGCC showed a self-cleavage of 0.06.
In the case of GGCAGAGCUCAUCACAGCGGGACAAAGUGGCUGUGGCUAGGCUACC, the self-cleavage is reported as 0.03.
GGCAGAGUUUAACACCGCGUGGCAAAGUGGCUGUGGCUAGACUGCC gave a self-cleavage of 0.03.
With GGCAUAGCUCAACACAGCGUGGCCAAGUUGCUUUGGCUAGACUGCC the self-cleavage was 0.
Variant GGCAGAGCUCAACCCAGCGAGGCAAAGAGGCUGUGGCUAGACUGCC has a self-cleavage of 0.02.
Variant GGCAGUGCUCAACACAGCGUGGCAUAAUGGUUGUGGCUAGACUGCC has a self-cleavage of 0.42.
Work on CGCAGAGAUCGACACAGCGUGGCAAAGUGGCUGUGGCUAGACUGCC yielded a self-cleavage of 0.
In the case of GGCAGAGCUCAACACAGCGUGGCAAAUUAACUGUGGCUAGACUGCC, the self-cleavage is reported as 0.44.
Work on GCCAGAGCUCAUCCCAGCGAGGCAAAGUGGCUGUGGCUAGACUGCC yielded a self-cleavage of 0.02.
For GGCAGAGCUCAACACAGUGUGGCAAAGUGGAUCUGGCUAGACUGCC, the self-cleavage was 0.03.
In the case of GGCAGAGCUUAACACAGCGUGGCAAAGUAGCCGUGGCUAGACUGCC, the self-cleavage is reported as 0.02.
GGCAGAGCUAAAUACAGCGUGGCAAGGUGGCUUUGGCGAGACUGCC showed a self-cleavage of 0.01.
In the case of GGAAGAGCUCAACUCAGCGUGGCAAAGUGGCUGUGGCUUGACUGCC, the self-cleavage is reported as 0.08.
With AGCAGAGCUCAACAAAGCGUGGCAAAGUGGCUUUGGGUAGACUGCC the self-cleavage was 0.01.
With GGCAGAGCGCAACACAGCGUCGCAAAGUGGCUGUGGCUAGACUGCA the self-cleavage was 0.1.
GGCAGAGCUCAACAAAGCGUGGCAAAGUGGCGGUGGCUAGACUGCA gave a self-cleavage of 0.02.
Work on GGCAGAGCUCAACGCUGCGUAGCAAAGUGGCUGUGGCUAGACUGCC yielded a self-cleavage of 0.04.
GGCAGACCUCAACACAGCGUGACUAAGUGGCUGUGGCUAGACUGCC gave a self-cleavage of 0.04.
GGCAGAGCACAACACAGCGGGGCAAAGUGGCUGUGGUUAGACUGCG showed a self-cleavage of 0.06.
Variant GGCAGAGCUCAAUACAGCGCGGCAGAGUGGCUGUGGCUAGACUGCA has a self-cleavage of 0.03.
GGCAUAGCUCAACACAGUGUGUCAAAGUGGCUGUAGCUAGACUCCC showed a self-cleavage of 0.01.
Work on GGCAGAUUUCAACACAGCGUGGCAAAGUGGCUGUGGGUAGACUGCC yielded a self-cleavage of 0.05.
Work on GGCAGAGCUCAGCACAGGGUGGCAAAGUGGCUGUGGCUAGAUUCCC yielded a self-cleavage of 0.04.
GCCAGAGCUCAACACAGCAUGGCAAAGUGGCUUUGGCUAGGCUGCC showed a self-cleavage of 0.03.
Work on UUCAGAGCUCAUCACAGCGUGGCAAAGUAGCUGUGGCUAGACUGCC yielded a self-cleavage of 0.02.
Variant GGCAGAGCUCAACACAGCUUGGCAACGGGGCUGUGGCUAGACUGCC has a self-cleavage of 0.33.
GGCAGAACUCACCACAGCGUGGCAAAGUGCAUGUGGCUAGACUGUC gave a self-cleavage of 0.02.
For GGCAGAGCUCAACACAGCGCGGCAAAGUAGCUGUGGCAAGACUGCC, the self-cleavage was 0.13.
With GGAAGAGCUCAGCACAGCGUGGUAAAGUGCGUUUGGCUAUACUGCC the self-cleavage was 0.01.
Work on GGCAGAGCUCGACUCAGCGUGGCAAAGAGGCGGUGGCUAGACUGCC yielded a self-cleavage of 0.01.
Work on AGCAGAGCUCAAAACAGCGUGGCAAGGUGGCUGUGGCUAGACUGCC yielded a self-cleavage of 0.03.
